The values below come from PubChem BioAssay AID1508642 (National Center for Advancing Translational Sciences (NCATS), 2021).

Out of some 43,000 compounds screened, about 200 (0.47%) were called active. Inconclusive results (about 12%) are left out. Calls come from the whole dose curve; as a rule, active = well fitted cell-killing curve with a large enough effect; inconclusive = small, poorly fitted or top-dose-only effect, or effect the other way; inactive = flat fitted curve, though single readings scatter. Some of the results follow.
% is set by controls: 0 for no effect and ±100 for the full control effect.

The assay is described as follows: Cell viability qHTS assay in S16 Pmp22-F2sN cells. Note: nearly all actives have a fitted effect of over 65% in size. Particulars: S16 Pmp22-F2sN Schwann cells (luciferase reporters placed in the Pmp22 gene) viability, CellTiter-Glo, 24 h; series mostly up to 57.5 µM; activity change, negative = cytotoxicity: at the top concentration. From the text:
Assay Provider: Jim Inglese Ph.D. National Center for Advancing Translational Science, National Institutes of Health, Rockville, MD CMT is a heterogeneous group of neurological disorders that affect approximately 1 in 2,500 people. In particular, the most common form of CMT, CMT1A is genetically linked to the duplication of the PMP22 gene which leads to Schwann cell overexpression, thus manifesting itself as a typical case of dose-sensitive diseases. To identify small molecule compounds that can mediate the expression of PMP22 we developed a phenotypic assay screening strategy by utilizing genome editing techniques to construct Schwann cell lines containing novel reporter technology to monitor the transcriptional or translational regulation of PMP22. For high sensitivity we use a bioluminescent reporter system embedded in the 3' UTR of the PMP22 gene (S16(c9) Pmp22-F2sN) to identify compounds that inhibit gene expression. […] We can further discriminate the effect of all transcriptionally active molecules on PMP22 translation or stability with an assay that incorporates a short NLuc peptide (HiBiT) at the C-terminus of expressed PMP22 (S16(f8) PMP22-HiBiT) allowing alpha complementation and luminescence detection of membrane-associated PMP22 protein. These assays were screened against the NCATS Sytravon Library Collection. Miniaturization of these assays to 1536-well plate format for quantitative high throughput screening (qHTS) yielded rich data sets immediately from the qHTS assay (S16(c9) Pmp22-F2sN), when compared with data from a cell viability assay (Cell TiterGlo) to identify compounds that decreased the output signals through cellular toxicity to streamline the selection process of actives for subsequent characterization using the HiBiT assay (S16(f8) PMP22-HiBiT).
Cell viability assay in S16 Pmp22-F2sN cells PROTOCOL TABLE (format as described by Inglese J, Shamu CE and Guy RK. 2007) SEQUENCE No. (e.g., 1, 2, 3, etc.); […] (e.g., Cells, Incubation, Reagent, etc.); VALUE and DESCRIPTION. 1. Cells. Add 500-1,000 cells in 4 uL in growth media (DMEM High Glucose, No Phenol Red media + 10% heat-inactivated FBS + 1% Pen/Strep supplemented media) per well into Greiner 1536-well white/solid bottom high base, TC-treated plates. 2. Compounds. Library compounds and controls added at 23nL per well, transferred by Pin Tool. 3. Incubation. Incubate plates at 37C, 5% CO2, 95% RH for 24 h. 4. Reagent. Add 3uL CellTiter-Glo per well of Greiner 1536-well plates. 5. Incubation. Incubate plates at room temperature for 15 min., protect from light. 6. Detector. FLuc luminescence measured using CCD-based camera (Viewlux). NOTES (numbers refer to Sequence numbers above; values are from representative experiments) 6. Luminescence Read: Clear filter; Exposure = 1 sec, Gain = High, Speed = Slow, Binning = 2X REFERENCES: 1. Inglese J, Shamu CE and Guy RK, Reporting data from high throughput screening of small molecule libraries, Nature Chemical Biology, 2007, 3(8): 438-441. doi.org/10.1038/nchembio0807-438 2. Yasgar A, Shinn P, Jadhav A, Auld DS, Michael S, Zheng W, Austin CP, Inglese J and Simeonov A, Compound Management for Quantitative High-Throughput Screening. J. Assoc. Lab. Auto., 2008, 13: 79-89. doi: 10.1016/j.jala.2007.12.004
For `Cc1cccc(N2CCN(C(=O)CCNS(=O)(=O)c3ccc4c(c3)CCN4C(=O)C3CC3)CC2)c1C`, the “activity change, negative = cytotoxicity” value was inactive: -18.1%.

Take `Cc1ccc(-c2nnc(Nc3ccc(O)cc3)c3ccccc23)cc1S(=O)(=O)NC(C)(C)CO`: the “activity change, negative = cytotoxicity” value is inactive: 0.541%.

In the case of `CCOc1ccc(S(=O)(=O)N(CC(=O)Nc2ccc(OC)c(Cl)c2)c2ccccc2)cc1`, the “activity change, negative = cytotoxicity” value is inactive: 0.903%.

For `Cc1nn2c(C)c(C(=O)NCc3cccc(Br)c3)cnc2c1-c1ccccc1`, the “activity change, negative = cytotoxicity” value is inactive: -0.948%.

Turning to `CCOc1ccc(C(=O)NCC(c2ccc3c(c2)OCO3)N2CCN(C)CC2)cc1` (stereo unspecified), the “activity change, negative = cytotoxicity” value was inactive: 13.6%.

Regarding `CCOc1ccc(NC(=O)N2CCC(n3c(C)nc4cccnc43)CC2)cc1`, the “activity change, negative = cytotoxicity” value is inactive: -0.449%.

As to `Cc1cc(C)cc(NC(=O)C2CCN(c3nnc(-n4c(C)ccc4C)s3)CC2)c1`, the “activity change, negative = cytotoxicity” value is inactive: 0.163%.

On to `CCOC(=O)c1scc(-c2ccc(C)cc2)c1S(=O)(=O)N1CCN(c2ccccc2)CC1`, for which the “activity change, negative = cytotoxicity” value was inactive: -4.28%.

Consider `COc1ccc(-n2c(SCC(=O)Nc3ccc4c(c3)OCO4)nc3c([nH]c4ccccc43)c2=O)cc1`, for which the “activity change, negative = cytotoxicity” value is inactive: 3.79%.

Regarding `CC(=O)c1ccc(NS(=O)(=O)c2ccc3[nH]c(=O)[nH]c3c2)cc1`, the “activity change, negative = cytotoxicity” value is inactive: -4.71%.

As to `COc1ccc(S(=O)(=O)N(CC(=O)Nc2ccc(C)cc2)c2ccc(C)cc2)cc1OC`, the “activity change, negative = cytotoxicity” value is inactive: 26.2%.

As to `CCc1cccc(NC(=O)CN(C)S(=O)(=O)c2ccc3c(c2)n(C)c(=O)c(=O)n3C)c1`, the “activity change, negative = cytotoxicity” value is inactive: 1.78%.

As for `CCOc1ccccc1CNC(=O)CCCn1c(=O)c2cccn2c2ccc(F)cc21`, the “activity change, negative = cytotoxicity” value was inactive: -14.6%.

Turning to `Cc1ccc(CNC(=O)c2cc(NS(=O)(=O)c3ccc(C)cc3)ccn2)cc1`, the “activity change, negative = cytotoxicity” value is inactive: 12.3%.

Turning to `CCOC(=O)c1cc(S(=O)(=O)N(C)c2ccccc2)[nH]n1`, the “activity change, negative = cytotoxicity” value is inactive: 8.38%.

`Cc1ccc(NS(=O)(=O)c2ccc3[nH]c4c(c3c2)CCCCCC4)cc1C`: the “activity change, negative = cytotoxicity” value was inactive: -9.48%.

`Cc1cccc(Nc2nnc(-c3ccc(C)c(S(=O)(=O)N4CCOCC4)c3)c3ccccc23)c1`: the “activity change, negative = cytotoxicity” value is inactive: -13.5%.

As for `COc1ccc(CCNCc2c(C(=O)O)c(C)n(Cc3cccc(C)c3)c2C)cc1OC`, the “activity change, negative = cytotoxicity” value is inactive: 3.25%.

Regarding `Cn1c(Oc2cccc(Cl)c2)nc2c1c(=O)n(Cc1ccccc1Cl)c(=O)n2C`, the “activity change, negative = cytotoxicity” value is inactive: 0.873%.

Regarding `COc1ccc(NC(=O)CN(C)S(=O)(=O)c2ccc3nc(C)sc3c2)cc1Cl`, the “activity change, negative = cytotoxicity” value was inactive: -24.3%.

Consider `COC(=O)c1sc2cccc(F)c2c1S(=O)(=O)NCc1ccccc1Cl`, for which the “activity change, negative = cytotoxicity” value is inactive: -1.55%.

As for `COCCn1c(C)cc(O)c(C(c2ccccc2Cl)N2CCN(c3ccccc3)CC2)c1=O` (stereo unspecified), the “activity change, negative = cytotoxicity” value was inactive: -2.15%.

`COc1ccc(OCC(=O)N2CCN(C(=O)c3cccc(OC)c3OC)CC2)cc1`: the “activity change, negative = cytotoxicity” value was inactive: 11%.

`CCCCN(C(=O)CCn1c(=O)oc2ccccc21)c1ccccc1`: the “activity change, negative = cytotoxicity” value is inactive: 1.07%.

As to `CCOc1ccc(-c2cc(CCCC(=O)NCCc3ccc(SC)cc3)no2)cc1`, the “activity change, negative = cytotoxicity” value was inactive: 6.74%.

With `Cc1cccc(NC(=O)Cn2c(=O)n(CC3CCC(C(=O)NCCc4ccccc4)CC3)c(=O)c3ccccc32)c1C` (stereo unspecified), the “activity change, negative = cytotoxicity” value was inactive: -1.52%.

Turning to `Cc1ccc2[nH]c(C)c(CCNC(=O)c3cc4cc(Br)ccc4oc3=O)c2c1`, the “activity change, negative = cytotoxicity” value was inactive: -4.09%.

In the case of `O=C(NCC(c1cccnc1)N1CCc2ccccc21)c1cccc(F)c1` (stereo unspecified), the “activity change, negative = cytotoxicity” value was inactive: -4.52%.

Consider `O=C(NCC(c1ccco1)S(=O)(=O)c1cccs1)c1c(F)cccc1F` (stereo unspecified), for which the “activity change, negative = cytotoxicity” value was inactive: -5.24%.

As to `CCN(CC)C(=O)c1sc2c(c1C)c(=O)n(Cc1ccccc1)c(=O)n2Cc1c(C)cc(C)cc1C`, the “activity change, negative = cytotoxicity” value was inactive: -0.181%.

As to `CCN(CC)C(=O)Cn1c(=O)n(CCCCCC(=O)NCc2ccc(C)cc2)c(=O)c2sccc21`, the “activity change, negative = cytotoxicity” value is inactive: -36.8%.

Consider `CCOc1ccc(-n2c(=O)c3c(C)c(C)sc3n(Cc3ccc(C(C)(C)C)cc3)c2=O)cc1`, for which the “activity change, negative = cytotoxicity” value is inactive: -20.3%.

Take `CC(=O)N1CCc2c(sc3c2c(=O)n(-c2cc(Cl)ccc2C)c(=O)n3C)C1`: the “activity change, negative = cytotoxicity” value was inactive: 7.41%.

Turning to `CCOc1ccc(C(c2c(O)cc(C)n(CCOC)c2=O)N2CCN(c3ccc(F)cc3)CC2)cc1` (stereo unspecified), the “activity change, negative = cytotoxicity” value was inactive: 2.66%.

Turning to `Cc1cccc2cc(-c3nc(-c4cccs4)no3)c(=O)oc12`, the “activity change, negative = cytotoxicity” value is inactive: 0.0599%.

Regarding `Cc1sc2ncn(CC(=O)N3CCN(c4cccc(Cl)c4)CC3)c(=O)c2c1S(=O)(=O)N1CCC(C)CC1`, the “activity change, negative = cytotoxicity” value is inactive: -23.3%.

Take `CCn1cc(S(=O)(=O)c2cc(C)cc(C)c2)c(=O)c2cc(F)c(N3CCN(c4ccccc4)CC3)cc21`: the “activity change, negative = cytotoxicity” value was inactive: -0.271%.

Turning to `COc1cccc(C(=O)N2CCc3cc(OC)c(OC)cc3C2COc2ccc3c(C)cc(=O)oc3c2)c1` (stereo unspecified), the “activity change, negative = cytotoxicity” value was inactive: 12.4%.

Consider `COC(=O)c1ccc(NC(=O)CN(C)S(=O)(=O)c2ccc3c(c2)CCCC(=O)N3)cc1`, for which the “activity change, negative = cytotoxicity” value is inactive: -0.436%.

On to `COc1ccc(Cl)cc1NC(=O)COc1cccc2c(=O)n(C)ccc12`, for which the “activity change, negative = cytotoxicity” value was inactive: -0.629%.

Turning to `CCCCNC(=O)Cn1nc(N2CCN(c3ccccc3OC)CC2)ccc1=O`, the “activity change, negative = cytotoxicity” value is inactive: 1.02%.

Regarding `O=C(Cn1c(=O)n(CC2CCCO2)c(=O)c2ccccc21)Nc1ccc(F)cc1F` (stereo unspecified), the “activity change, negative = cytotoxicity” value is inactive: -1.88%.

`COc1cc(C)ccc1OCCSc1nc2ccc(NC(=O)c3ccccc3F)cc2s1`: the “activity change, negative = cytotoxicity” value is inactive: -1.89%.

For `COC(=O)c1cc(NC(=O)Cn2nc(-c3ccccc3)c3c(c2=O)CCCC3)cc(C(=O)OC)c1`, the “activity change, negative = cytotoxicity” value was inactive: 1.63%.

Turning to `N#C/C(=C/c1ccccc1Cl)c1nc(-c2cc3ccccc3oc2=O)cs1`, the “activity change, negative = cytotoxicity” value is inactive: 4.55%.

`CCc1ccc(-c2cc(C)no2)cc1S(=O)(=O)NCc1ccc(OC)cc1`: the “activity change, negative = cytotoxicity” value was inactive: 1.56%.
